Test results as given in PubChem BioAssay AID504466 (National Center for Advancing Translational Sciences (NCATS), 2011).
The whole screen tested about 330,000 compounds, of which about 4,200 (1.3%) were called active. The shares of active, inactive and inconclusive entries below differ from those in the screen. Calls come from the whole dose curve; as a rule, active = well fitted activation curve with a large enough effect; inconclusive = small, poorly fitted or top-dose-only effect; inactive = no such curve, though single readings can be large or run the other way. Potencies beside an inconclusive call are fits to weak or partial responses and may not hold up.

Experiment: qHTS screen for small molecules that induce genotoxicity in human embryonic kidney (HEK293T) cells expressing luciferase-tagged ELG1; note: nearly all actives have a fitted effect of over 60% in size; for activity change, positive = activation: % of control where 0% means no effect
Settings: HEK293T ELG1-luciferase reporter, luminescence, 16 h; series mostly up to 46 µM; activity change, positive = activation: at the top concentration
Outline: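 Genotoxic stress is detected as increased luminescence from luciferase-tagged ELG1 in HEK293T cells, measured with ONE-Glo after a 16 hr treatment at 37 °C.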
Potency is the fitted concentration of half-maximal effect; tags give direction and shape of the fitted curve.

Which “activity change, positive = activation” value does the source give for `Cc1cc(C)n(-c2nc(NCCN(C)C)c3c4c(sc3n2)COC(C)(C)C4)n1` here?
Its value is inactive: 2.25%.

For `CC1CCN(C(=O)CN2C(=O)c3ccccc3S2(=O)=O)CC1`, which Potency is on record?
Its Potency is inconclusive: 8.2 µM [activator, partial curve].

Which Potency does the source give for `COc1ccc(CC(=O)Nc2ccc(-c3cn4ccc(C)cc4n3)cc2)cc1` here?
The Potency was active: 20.6 µM.

With `C/C(=N\NC(=O)NC1CCCCC1)c1ccco1` as the compound, how does the Potency read?
Its Potency is inconclusive: 32.6 µM [activator, partial curve, poor fit].

With `CCOc1ccc(N/C=C/C(=O)c2ccc(C)cc2)c([N+](=O)[O-])c1` as the compound, how does the Potency read?
Its Potency is inconclusive: 3.66 µM [activator, full curve].

For `CCN(CC(=O)NCc1ccc(F)cc1)C(=O)/C=C/c1ccco1`, which Potency is on record?
Its Potency is inconclusive: 8.2 µM [activator, partial curve, poor fit].

For `O=C(NCc1ccco1)/C(=C/c1ccc(C(F)(F)F)cc1)c1nc2ccccc2[nH]1`, which Potency is on record?
Its Potency is inconclusive: 25.9 µM [activator, single point].

For `Cc1ccc(S(=O)(=O)N2CCOC23CCN(S(=O)(=O)c2cccs2)CC3)cc1`, which “activity change, positive = activation” value is on record?
The value was inactive: 0.569%.

With `O=C(O)C1CCCCC1C(=O)Nc1ccc(S(=O)(=O)N2CCCCC2)cc1` (configuration not stated) as the compound, how does the “activity change, positive = activation” value read?
The value was inactive: 0.543%.

Which Potency does the source give for `Oc1ccccc1OCc1nc2ccccc2s1` here?
The Potency was active: 8.2 µM.

With `O=C(Nc1ccc(-c2noc(-c3ccccc3F)n2)cc1)c1cccs1` as the compound, how does the Potency read?
Its Potency is inconclusive: 18.4 µM [activator, partial curve, poor fit].

With `Oc1c(CN2CCN(c3ccccn3)CC2)cc(Cl)c2cccnc12` as the compound, how does the Potency read?
Its Potency is active: 7.31 µM.

For `CCOc1ccc(NC(=O)n2ncc3c(C)cccc32)cc1`, which Potency is on record?
Its Potency is inconclusive: 7.3 µM [activator, partial curve].

Which Potency does the source give for `N/C(=N\c1nc2ccccc2o1)NC(=O)c1ccccc1` here?
The Potency was active: 8.2 µM.

For `CC(=O)Nc1nc(-c2ccc3ccccc3c2)cs1`, which Potency is on record?
The Potency was inconclusive: 2.31 µM [activator, full curve].

With `O=C(CCc1ccccn1)N1CCCC(Nc2cccc(F)c2)C1` (configuration not stated) as the compound, how does the “activity change, positive = activation” value read?
Its value is inactive: 0.565%.

For `N=C1C(c2nc3ccccc3s2)=C(O)CN1NC(=O)c1ccco1`, which Potency is on record?
The Potency was inconclusive: 20.6 µM [activator, partial curve, poor fit].

With `CCOC(=O)CC(=O)CSc1nc(-c2cccnc2)ccc1C#N` as the compound, how does the Potency read?
The Potency was inconclusive: 20.6 µM [activator, partial curve, poor fit].

For `COc1ccc2c(c1)nc(SCC(=O)c1cccs1)n2C`, which “activity change, positive = activation” value is on record?
Its value is inactive: 3.58%.

With `O=C(NCCO)C1CCN(C(=O)c2ccc(-c3ccccc3)cc2)CC1` as the compound, how does the “activity change, positive = activation” value read?
Its value is inactive: 3.46%.

For `Clc1ccccc1-c1nnc(-c2cccnc2)o1`, which Potency is on record?
Its Potency is active: 23.1 µM.

With `COc1c(-c2ccc(O)c(O)c2)oc2cc(O)cc(O)c2c1=O` as the compound, how does the Potency read?
Its Potency is inconclusive: 25.9 µM [activator, partial curve, poor fit].

Which “activity change, positive = activation” value does the source give for `COc1cccc(N(CC(=O)NC2CCCCC2)C(=O)CCC(=O)Nc2nc(C)cs2)c1` here?
The value was inactive: -0.193%.

With `O=C(Nc1ccc(C(=O)Oc2ccccc2)c(O)c1)c1ccco1` as the compound, how does the Potency read?
The Potency was inconclusive: 2.91 µM [activator, partial curve, poor fit].

Which Potency does the source give for `O=C(Nc1ccccc1F)c1ccc(C(=O)c2ccccc2)cc1` here?
The Potency was inconclusive: 18.3 µM [activator, partial curve].

For `C/C=C\C=C/C(=O)Nc1cccc(C2=NOC3(C2)C[C@@H](C(N)=O)N(C(=O)C2(C)CC2)C3)c1` (some centres not stated), which “activity change, positive = activation” value is on record?
Its value is inactive: 7.01%.

Which Potency does the source give for `O=C(Nc1cccc(-c2ccc(N3CCCCC3)nn2)c1)C(F)(F)F` here?
The Potency was inconclusive: 0.73 µM [activator, partial curve, poor fit].

With `Cc1ccc2nc(-c3ccc(NC(=S)NC(=O)C(C)C)cc3)sc2c1` as the compound, how does the Potency read?
The Potency was active: 9.2 µM.

Which Potency does the source give for `CC(C)c1nnc(NC(=O)CC(=O)Nc2ccccc2C(=O)O)s1` here?
Its Potency is inconclusive: 18.4 µM [activator, partial curve, poor fit].

With `Cc1ccc(-n2[nH]c(C)c(/C=N/N3C(=O)c4cccc5cccc(c45)C3=O)c2=O)cc1` as the compound, how does the Potency read?
Its Potency is inconclusive: 32.6 µM [activator, partial curve, poor fit].

With `CCOc1ccccc1C(=O)NN1C(=O)C2CCCCC2C1=O` (configuration not stated) as the compound, how does the “activity change, positive = activation” value read?
The value was inactive: 2.38%.

With `O=C(NC(=S)Nc1cnc2ccccc2c1)c1ccccc1` as the compound, how does the Potency read?
Its Potency is inconclusive: 1.46 µM [activator, full curve].

For `Cn1c(COc2ccccc2O)[n+](C)c2ccccc21`, which “activity change, positive = activation” value is on record?
The value was inactive: -3.47%.

With `CCCc1ccc2oc(C(=O)NCCN3CCCC(O)C3)c(C)c2c1` (configuration not stated) as the compound, how does the Potency read?
The Potency was inconclusive: 29.1 µM [activator, single point].

For `O=C(NCCc1c[nH]c2ccccc12)C(=O)NCC1OCCN1S(=O)(=O)c1ccccc1` (configuration not stated), which “activity change, positive = activation” value is on record?
Its value is inactive: -0.293%.

Which “activity change, positive = activation” value does the source give for `COc1ccc(/C=C2/SC(=S)N(CC(=O)O)C2=O)cc1OCc1ccc(Cl)cc1` here?
The value was inactive: 16.7%.

With `CCOc1ccc(NC(=O)c2ccccc2NS(C)(=O)=O)cc1` as the compound, how does the Potency read?
The Potency was inconclusive: 32.6 µM [activator, partial curve, poor fit].

With `Nc1nnc(-c2ccc(Cl)cc2Cl)s1` as the compound, how does the Potency read?
The Potency was inconclusive: 20.6 µM [activator, partial curve].

Which Potency does the source give for `CCN1C(=O)[C@H]2[C@H]3CN=C(SCC(=O)c4ccccc4)N3[C@@](CC)(C(=O)OC)[C@H]2C1=O` here?
The Potency was inconclusive: 29.1 µM [activator, single point].

With `C/C(=N\Nc1ccc([N+](=O)[O-])cc1)c1cc2ccccc2o1` as the compound, how does the Potency read?
Its Potency is inconclusive: 16.4 µM [activator, partial curve, poor fit].

For `COc1ccc(Nc2nc3c(C)cccc3cc2C#N)c(OC)c1`, which “activity change, positive = activation” value is on record?
Its value is inactive: 11.8%.

For `COc1cc2c3nnc(-c4ccc(F)cc4)c-3cn(Cc3cccc(C)c3)c2cc1OC`, which Potency is on record?
Its Potency is inconclusive: 18.4 µM [activator, single point].

Which Potency does the source give for `O=C(Nc1cc(Cl)cc(Cl)c1)c1ccc(Cn2c(=O)[nH]c3ccsc3c2=O)cc1` here?
Its Potency is inconclusive: 29.1 µM [activator, partial curve, poor fit].

With `O=C(N/C(=C/c1ccco1)C(=O)N1CCOCC1)c1ccccc1Br` as the compound, how does the “activity change, positive = activation” value read?
The value was inactive: 7.1%.

With `O=C(Cn1nc(C(=O)O)c2ccccc2c1=O)Nc1cc(S(=O)(=O)N2CCOCC2)ccc1Cl` as the compound, how does the “activity change, positive = activation” value read?
Its value is inactive: 1.76%.

Which Potency does the source give for `Cc1nnc2c3ccccc3c(-c3cccs3)nn12` here?
Its Potency is active: 12.6 µM.

For `COc1cc(C(=O)NCCNc2nc3ccc(C)cc3cc2C#N)cc(OC)c1OC`, which “activity change, positive = activation” value is on record?
Its value is inactive: -2.02%.
